# Whole data set: some 5,400 compounds, median “IFI” near 2, cut for the highest 2% near 22. The list shows a part of the results.
# Assay: NOVARTIS: Inhibition Frequency Index (IFI) - the number of HTS assays where a compound showed > 50% inhibition/induction, expressed as a percentage of the number of assays in which the compound was tested.
# Assay type: functional
row,SMILES,IFI
1,CC=C[C@H]1O[C@@](O)([C@@H](C)C(O)C(C)[C@H]2OC(=O)C(OC)=CC(C)=C[C@@H](C)[C@H](O)C(CC)[C@@H](O)[C@H](C)CC(C)=CC=C[C@@H]2OC)C[C@@H](O[C@H]2C[C@@H](O)[C@H](OC(N)=O)[C@@H](C)O2)[C@@H]1C (some centres not stated),17.5%
2,O[Si](CCCN1CCCCC1)(c1ccccc1)C1CCCCC1 (configuration not stated),2.78%
3,CC(C)[C@@]1(NC(=O)[C@@H]2C[C@@H]3c4cccc5[nH]cc(c45)C[C@H]3N(C)C2)O[C@@]2(O)[C@@H]3CCCN3C(=O)[C@H](Cc3ccccc3)N2C1=O,0.571%
4,CCC(C)N1CCN(Cc2cccc(OC)c2OC)CC1 (configuration not stated),3.17%
5,CCn1nc(/C=C/c2ccccc2)nc2c(=O)n(C)c(=O)nc1-2,16.7%
6,COC1=CC(C)=C[C@@H](C)[C@@H](O)[C@H](C)CC(C)=CC=C[C@H](OC)[C@@H](C(C)C(O)[C@H](C)[C@@]2(O)C[C@@H](O)[C@H](C)[C@@H](C(C)C)O2)OC1=O (some centres not stated),19.6%
7,CN1CC=C(/C=C/c2c[nH]c3ccccc23)CC1,0%
8,NC(=O)CN1CC(O)CC1=O (configuration not stated),0%
9,CN1C2CCC1/C(=C\c1ccsc1)C(=O)/C2=C\c1ccsc1,0%
10,O=C(c1ccccc1)c1cc(Cl)ccc1NCCBr,0%
11,OP1(O)=NP(O)(O)=NP(O)(O)=NP(O)(O)=N1,1.51%
12,C=CC12CCN(CC1)C(C(O)c1ccnc3ccc(OC)cc13)C2 (configuration not stated),0%
13,CC=C[C@H]1O[C@@](O)([C@H](C)C(O)C(C)[C@@H]2OC(=O)C(OC)=CC(C)=C[C@H](C)[C@H](O)[C@H](CC)[C@H](O)C(C)CC(C)=CC=C[C@H]2OC)C[C@@H](O[C@@H]2C[C@H](O)[C@@H](OC(N)=O)[C@H](C)O2)[C@@H]1C (some centres not stated),15%
14,CC1=CC(=O)OC[C@]23CCC(C)=C[C@H]2O[C@@H]2C[C@@H](OC(=O)C=CC=CC(=O)OCC1)[C@@]3(C)[C@]21CO1,22.6%
15,C[C@@H]1C[C@@H]([C@H](O)CC2CC(=O)NC(=O)C2)C(=O)[C@@H](C)C1,19.7%
16,CCOc1ccc(N2C(=O)NC(=O)/C(=C\c3cn(C(C)=O)c4ccccc34)C2=O)cc1,4.51%
17,O=C(CN1CCCC1)Nc1ccc(Cc2ccc(NC(=O)CN3CCCC3)cc2)cc1,1.07%
18,CC1=CC(=O)OC[C@]23C[C@H](O)C(C)=C[C@H]2O[C@@H]2C[C@@H](OC(=O)C=CC=CC(=O)OCC1)[C@@]3(C)[C@]21CO1,22.6%
19,O=C1c2ccccc2-c2nc3nnnn3nc21,42.9%
20,CC(C)NC(=O)c1cn(Cc2ccccc2)cc(C(=O)NCCc2nc3ccccc3[nH]2)c1=O,4.54%
21,CN1CCN(c2ccc(NC(=O)Oc3ccccc3)cc2)CC1,1.21%
22,C[C@@H]1C[C@@H](C)C(=O)[C@@H](C(O)CC2CC(=O)NC(=O)C2)C1 (some centres not stated),23.4%
23,CCOc1ccc(C2c3[nH]c4ccccc4c3CCN2C(=O)c2cc3cc(Br)ccc3o2)cc1 (configuration not stated),1.16%
24,Oc1ccccc1C=Nc1ccccc1[Te]c1ccccc1N=Cc1ccccc1O,8.21%
25,Cc1nc(-c2ccccn2)nc(NCCc2ccccc2)c1Cl,5.41%
26,C=C[C@H]1CN2CC[C@H]1C[C@H]2[C@H](OC(C)=O)c1ccnc2ccccc12,1.89%

row,SMILES,IFI
1,CC(Cc1ccccc1)NCCCCCNC(C)Cc1ccccc1 (configuration not stated),1.85%
2,CC1CCC2C(C)C(=O)OC3OC4(C)CCC1C32OO4 (configuration not stated),7.14%
3,Cc1ccc(NC=C2C(=O)NC(=S)NC2=O)cc1,0%
4,COc1ccc(-c2nc3ccccc3n2C2CCN(Cc3ccc(C)o3)CC2)cc1OC,0.962%
5,C=C[C@H]1CN2CC[C@H]1C[C@@H]2[C@@H](OC(=O)c1ccco1)c1ccnc2ccccc12,1.65%
6,C=C[C@H]1CN2CC[C@H]1C[C@H]2[C@H](OC(=O)CCC)c1ccnc2ccccc12,0.917%
7,Cc1ccc(-n2c(C)c(C(=O)c3ccccc3)c3cc(O)ccc32)cc1,0%
8,C=CC1CN2CCC1CC2[C@H](c1ccnc2ccccc12)S(=O)(=O)O (some centres not stated),0%
9,CC(Cc1ccccc1)NCc1ccccc1O (configuration not stated),3.12%
10,O=C1CN=C(c2ccccc2)c2cc(Cl)ccc2N1Cc1cc(=O)n2ccccc2n1,0%
11,N#Cc1cc(N2CC3CC(C2)c2cccc(=O)n2C3)c([N+](=O)[O-])cc1C#N (configuration not stated),0%
12,O=C(NNc1cccc(F)n1)C(F)(F)F,1.25%
13,C=C[C@H]1CN2CC[C@H]1C[C@H]2[C@H](OC(=O)CCCC)c1ccnc2ccccc12,4.59%
14,CCCN[P+](CC(C)C)(NCCC)NCCC,10.9%
15,O=c1cccc2n1CC1CC2CN(Cc2cccc(O)c2)C1 (configuration not stated),0%
16,O=C(Cn1c2ccccc2c(=O)c2ccccc21)Nc1ccc(Cl)cc1C(=O)c1ccccc1,6.02%
17,CCN1CCN(Cc2cc(Cl)cc(Cl)c2O)CC1,0%
18,O=C(CCl)Nc1ccc(Cl)cc1,3.54%
19,CCCC[C@@H](C)C(O)[C@H]1C(=O)N[C@@H](CC)C(=O)N(C)CC(=O)N(C)[C@@H](CC(C)C)C(=O)N[C@@H](C(C)C)C(=O)N(C)[C@@H](CC(C)C)C(=O)N[C@@H](C)C(=O)N[C@@H](C)C(=O)N(C)[C@@H](CC(C)C)C(=O)N(C)[C@@H](CC(C)C)C(=O)N(C)[C@@H](C(C)C)C(=O)N1C (some centres not stated),3.45%
20,COc1cc2c(cc1O)CC[n+]1cc3c(OC)c(OC)ccc3cc1-2,0%
21,C=C[C@H]1CN2CC[C@H]1C[C@@H]2[C@@H](OC(C)=O)c1ccnc2ccccc12,1.83%
22,Cc1nc2ccccc2c(=O)n1-c1ccc([N+](=O)[O-])cc1,0%
23,OC1(c2ccc(Br)cc2)CCN(C2CCN(CCc3ccccc3)CC2)CC1,4.1%
24,CN(C)c1cc[n+](OC(=O)N2CCCCC2)cc1,0%
25,O=C1C(Nc2ccc(Cl)cc2)=C(N2CCCCC2)C(=O)c2ccccc21,5.33%
26,CCOP(=O)(OCC)C(O)c1ccc(C)cc1 (configuration not stated),0%

# Source: ChEMBL document CHEMBL1156829
